According to the supplement of paper PMC4723716:
± gives the uncertainty stated by the source. The full ranking holds about 9,900 compounds; the median of “viability index relative to DMSO control” is about 1, and the lowest 2% start at about 0.85. Some of the results follow.

test system: Plasmodium falciparum NF54 stage V gametocytes; test: viability index relative to DMSO control (fraction); higher = less gametocyte killing; conditions: 2.5 µM, library set: Broad Institute DOS, incubation time: 72 h
Experimental: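 Broad DOS informer set and blood-stage-active DOS compounds screened in duplicate at 2.5 µM against P. falciparum NF54 stage V gametocytes with the serum-free one-step SaLSSA (1536-well): 72 h at 37 °C under low oxygen, then saponin lysis and MitoTracker Red CMXRos staining, with high-content imaging. Viability index = viable-object count divided by the plate mean of DMSO wells (0 = killed, about 1 = inactive).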

SMILES	viability index
CCCNC(=O)N1[C@H](CO)[C@@H](c2ccccc2-c2ccc(OC)cc2)[C@@H]1C#N	1.15 ± 0.089
CC(=O)N1[C@H](CO)[C@H](c2ccccc2)[C@@H]1CNC(=O)CN1CCOCC1	1.06 ± 0.022
CCC(=O)N1[C@H](CO)[C@H](c2ccc(-c3cccc(OC)c3)cc2)[C@@H]1CNC(C)=O	1.056 ± 0.0058
C(=C\c1ccc([C@H]2[C@H]3CNC[C@@H]2N3CC2CCOCC2)cc1)/c1ccccc1	1.07 ± 0.034
CCCN(C)C[C@@H]1OCCCC[C@H](C)Oc2ccc(NC(=O)CCCN(C)C)cc2C(=O)N([C@@H](C)CO)C[C@@H]1C	1.1 ± 0.14
CO[C@H]1CN(C)C(=O)c2cccc(C#N)c2OCC[C@H]2CC[C@H](OC)[C@@H](CN(C)C(=O)[C@H]1C)O2	1.018 ± 0.0011
C[C@@H]1CN([C@@H](C)CO)C(=O)c2c(c3ccccc3n2C)-c2ccccc2CO[C@@H]1CN(C)C(=O)Nc1ccc2c(c1)OCO2	0.992 ± 0.12
COC(=O)C[C@H]1CC[C@H]2[C@H](COc3ccc(NC(=O)Nc4c(C)noc4C)cc3C(=O)N2C)O1	0.998 ± 0.022
CNC[C@H]1Oc2cc(C3=CCCC3)ccc2S(=O)(=O)N([C@H](C)CO)C[C@@H]1C	1.07 ± 0.079
CCC(=O)N1C[C@@H](C)[C@@H](OC)CN(C)C(=O)c2cc(NC(=O)Nc3ccc(Cl)cc3)ccc2OC[C@@H]1C	1.11 ± 0.075
CCCNC(=O)N1[C@H](CO)[C@@H](c2ccccc2-c2cccc(C)c2)[C@@H]1C#N	1.14 ± 0.11
CC(C)CC#Cc1ccc([C@H]2[C@H]3CN(S(=O)(=O)c4cccc(F)c4)CC(=O)N3[C@H]2CO)cc1	0.975 ± 0.023
N#C[C@H]1[C@@H](c2ccccc2-c2cccc(F)c2)[C@@H](CO)N1C(=O)NC1CCCCC1	0.99 ± 0.088
CC(C)CC#Cc1ccc([C@@H]2[C@H]3CN(C(=O)c4cccc(F)c4)CC(=O)N3[C@H]2CO)cc1	1.12 ± 0.082
N#Cc1ccc(-c2cccc(-c3nc(C(=O)O)cc4c3[C@@H](CCO)N(CC3CCOCC3)C4)c2)cc1	0.983 ± 0.058
C[C@@H]1CC(=O)NCC/C=C\C[C@H](c2ccc3c(c2)OCO3)NC1=O	1.059 ± 0.0056
CC(C)(C)[S@](=O)N1Cc2cc(C(=O)NCc3ccccc3F)nc(-c3cccc(-c4cncnc4)c3)c2[C@@H]1CCO	0.89 ± 0.056
OC[C@H]1[C@@H](c2ccc(C3=CCCC3)cc2)[C@@H]2CN(Cc3ccncc3)CCCCN12	0.845 ± 0.14
COc1ccc2c3c([C@H](CO)N(C)C[C@]33CN(C3)S(=O)(=O)c3cccc(C)c3)n(C)c2c1	0.982 ± 0.054
OC[C@H]1[C@@H]2c3ccccc3NC[C@@H]2N1Cc1ccccc1Cl	0.963 ± 0.032
CO[C@H]1CN(C)C(=O)c2cc(NS(C)(=O)=O)ccc2OC[C@@H](C)N(C(=O)C2CCOCC2)C[C@@H]1C	1.05 ± 0.027
O=C(Cc1cccnc1)N1CC(=O)N2[C@@H](CO)[C@H](c3ccc(C#CC4CCCCC4)cc3)[C@@H]2C1	1.06 ± 0.04
CN1CCN(C(=O)C[C@@H]2CC[C@@H]3[C@H](COc4ccc(NC(=O)C5CCOCC5)cc4C(=O)N3C)O2)CC1	1.03 ± 0.059
CCNC(=O)[C@@H]1[C@@H](CO)[C@@H]2Cn3c(ccc(-c4cncnc4)c3=O)[C@@H]2N1C(=O)NC1CCCC1	1.04 ± 0.021

SMILES	viability index
O=C(C[C@H]1C=C[C@H](NC(=O)CCN2CCCCC2)[C@@H](CO)O1)Nc1nccs1	1.04 ± 0.13
C/C=C/c1cccc(-c2nc(C(=O)N3CCCCC3)cc3c2[C@@H](CCO)N(C(=O)NC(C)C)C3)c1	1.023 ± 0.0074
C[C@H]1CN([C@@H](C)CO)C(=O)c2cccc(NS(C)(=O)=O)c2O[C@H]1CN(C)Cc1ccc(-c2ccccc2)cc1	1.033 ± 0.0035
C[C@@H]1CN([C@H](C)CO)C(=O)c2ccccc2-c2ccccc2CO[C@@H]1CN(C)C(=O)Nc1cccc(Cl)c1Cl	0.894 ± 0.05
COc1cccc(-c2ccc3n(c2=O)C[C@H]2N[C@@H]3[C@@H](C(=O)N3CCCCC3)[C@@H]2CO)c1	1.01 ± 0.054
O=C(C[C@H]1CC[C@H]2[C@@H](COC[C@H](O)CN2Cc2cccc(Cl)c2)O1)NCc1cccc(F)c1	0.969 ± 0.015
CO[C@@H]1CN(C)C(=O)c2cc(NC(=O)C3CC3)ccc2OC[C@@H](C)N(Cc2cc(F)ccc2F)C[C@@H]1C	0.982 ± 0.078
CCCN1C[C@@H](C)[C@H](OC)CN(C)C(=O)c2cc(NC(=O)C3CCC3)ccc2OC[C@@H]1C	1.04 ± 0.044
O=C(N[C@H]1C=C[C@H](CC(=O)N2CCN(c3ccccc3)CC2)O[C@@H]1CO)c1ccccc1	1.09 ± 0.064
C[C@H](CO)N1C[C@H](C)[C@@H](CN(C)Cc2ccc(-c3ccccc3)cc2)Oc2c(NS(C)(=O)=O)cccc2C1=O	1.02 ± 0.03
C[C@H](CO)N1C[C@H](C)[C@@H](CN(C)S(=O)(=O)c2ccc(F)cc2)Oc2ccc(NS(=O)(=O)c3cn(C)cn3)cc2C1=O	0.941 ± 0.24
COc1ccc2c3c([nH]c2c1)[C@@H](CO)N(C[C@]31CN(Cc2ccccc2)C1)C(=O)c1cccnc1	0.941 ± 0.11
O=C([C@H]1[C@H](CO)[C@H]2Cn3c(ccc(-c4ccc(F)cc4)c3=O)[C@H]2N1Cc1cocn1)N1CCCCC1	1.0512 ± 0.00091
C[C@H](CO)N1C[C@H](C)[C@H](CN(C)Cc2ccc(-c3ccccc3)cc2)Oc2ccc(N(C)C)cc2CC1=O	0.947 ± 0.086
CN1C[C@H]2[C@@H](c3ccccc31)[C@H](CO)N2C(=O)C1CCOCC1	1 ± 0.034
COc1cccc(S(=O)(=O)Nc2ccc3c(c2)[C@H]2C[C@@H](CC(=O)NC4CCCCC4)O[C@@H](CO)[C@H]2O3)c1	1.09 ± 0.041
Cc1noc(C)c1S(=O)(=O)Nc1ccc2c(c1)CC(=O)N([C@H](C)CO)C[C@@H](C)[C@H](CN(C)Cc1ccc(Oc3ccccc3)cc1)O2	0.948 ± 0.067
C[C@H](CO)N1C[C@H](C)[C@H](CN(C)Cc2cccc(C(F)(F)F)c2)OCc2ccccc2-c2c(n(C)c3ccccc23)C1=O	0.972 ± 0.029
COc1ccc2c3c([nH]c2c1)[C@H](CO)N(C[C@]31CN(C1)C(=O)C1CCC1)C(=O)c1ccccn1	1.04 ± 0.053
CO[C@@H]1CN(C)C(=O)c2cc(NS(C)(=O)=O)ccc2OC[C@H](C)N(Cc2cncnc2)C[C@H]1C	1.03 ± 0.033
O=C(NCC1CCCCC1)[C@@H]1[C@@H](CO)[C@@H]2Cn3c(cccc3=O)[C@H]1N2C(=O)c1ccncc1	1.05 ± 0.053
C[C@H]1CN([C@@H](C)CO)C(=O)c2ccccc2-c2ccccc2CO[C@@H]1CN(C)S(=O)(=O)c1ccc([N+](=O)[O-])cc1	1.0249 ± 1.2e-05
Cc1ccc(S(=O)(=O)N(C)C[C@H]2Oc3cc(C#CC4CCCC4)ccc3S(=O)(=O)N([C@H](C)CO)C[C@H]2C)cc1	0.8771 ± 0.0037
O=C(Nc1ccc(F)cc1)N1CC(=O)N2[C@H](CO)[C@H](c3ccc(C#Cc4cccnc4)cc3)[C@H]2C1	1.1 ± 0.086

SMILES	viability index
C[C@@H](NC(=O)C[C@@H]1CC[C@H]2[C@H](COc3ccc(NC(=O)C4CCOCC4)cc3C(=O)N2C)O1)c1ccccc1	1.13 ± 0.079
O=C(Cc1ccccn1)N1CC(=O)N2[C@H](CO)[C@@H](c3ccc(C#CCC4CCCC4)cc3)[C@H]2C1	1.05 ± 0.033
O=C(C[C@@H]1CC[C@@H]2[C@H](COC[C@@H](O)CN2CCC(F)(F)F)O1)NCC1CC1	1.06 ± 0.015
O=C(NC1CCCC1)N1CCCCN2[C@H](C1)[C@@H](c1ccc(-c3cccnc3)cc1)[C@@H]2CO	1.08 ± 0.033
COc1ccc2c3c([C@H](CO)N(Cc4cccnc4)C[C@]33CCN(CC3)C(=O)NC(C)C)n(C)c2c1	1.01 ± 0.021
O=C(C[C@H]1CC[C@@H]2[C@H](COC[C@@H](O)CN2C(=O)c2ccccc2F)O1)NCc1ccc(Cl)c(Cl)c1	1.099 ± 0.0019
CN1C[C@@H]2[C@H](c3ccccc31)[C@H](CO)N2C(=O)C1CCOCC1	0.9689 ± 0.0088
COc1ccc(C[C@@H]2CCc3cnnn3COCCNC2=O)cc1	1.09 ± 0.025
CCCC#Cc1ccc([C@H]2[C@@H](CO)N3C(=O)CN(C(=O)Nc4cccc(F)c4)C[C@@H]23)cc1	1.02 ± 0.082
COc1cccc(S(=O)(=O)Nc2ccc3c(c2)[C@H]2C[C@H](CC(=O)NC4CCCCC4)O[C@@H](CO)[C@H]2O3)c1	1.12 ± 0.025
O=C(Nc1ccc(C(F)(F)F)cc1)N[C@H]1C=C[C@H](CC(=O)N2CCCCC2)O[C@H]1CO	1.07 ± 0.073
COCC(=O)N(C[C@@H]1[C@@H](c2ccccc2)[C@H](CO)N1C(=O)NC(C)C)C(C)C	1.03 ± 0.089
C[C@H]1C/C=C/C[C@H](c2ccc3c(c2)OCO3)NC(=O)[C@H](C)N(C)C(=O)c2ccccc2O1.C[C@H]1C/C=C\C[C@H](c2ccc3c(c2)OCO3)NC(=O)[C@H](C)N(C)C(=O)c2ccccc2O1	1.06 ± 0.12
O=C(C[C@@H]1C=C[C@@H](NC(=O)c2ccncc2)[C@@H](CO)O1)NCC1CC1	1.06 ± 0.26
CO[C@H](CN(C)Cc1ccc2c(c1)OCO2)[C@H](C)CN(C(=O)c1ccccc1)[C@H](C)CO	0.994 ± 0.082
N#Cc1ccc(-c2ccc([C@@H]3[C@H]4CNC[C@@H]3N4C(=O)NC3CCCCC3)cc2)cc1	1.041 ± 0.0082
COc1ccc2c3c([C@H](CO)N(Cc4ccncc4)C[C@]33CN(C3)C(=O)C3CCCCC3)n(C)c2c1	1.03 ± 0.079
C[C@@H]1CN([C@@H](C)CO)C(=O)CCCn2cc(nn2)CO[C@H]1CN(C)C(=O)NC1CCCCC1	1.104 ± 0.004
COC(=O)C[C@@H]1CC[C@@H]2[C@@H](COc3ccc(NC(=O)Nc4cccc(C#N)c4)cc3C(=O)N2C)O1	1.13 ± 0.075
CCS(=O)(=O)Nc1ccc2c(c1)C(=O)N(C)C[C@H](OC)[C@@H](C)CN(C(=O)c1ccc3c(c1)OCO3)[C@H](C)CO2	1.08 ± 0.051
COc1ccc2c3c([nH]c2c1)[C@@H](CO)N(C)C[C@]31CCN(CC1)S(=O)(=O)c1ccc(C)cc1	0.944 ± 0.059
COc1ccccc1NC(=O)N1CC(=O)N2[C@H](CO)[C@@H](c3ccc(-c4cccc(C)c4)cc3)[C@@H]2C1	1.1 ± 0.025
C/C=C/c1ccccc1[C@@H]1[C@H](C#N)N(C(C)=O)[C@H]1CO	1.14 ± 0.039
